Experimental data as given in PubChem BioAssay AID1963975 (Molecular Pharmacology Branch, DTP, NCI, 2024).
Some entries of the source have several records that differ or are many. Only these are listed. An entry can have further records. Values given together are repeated measurements (runs, samples, wells, individuals or studies). Counts like (3×) say how often a value occurs here.

System: 624824-186-R-J2-PDC multicell spheroids, viability
Experiment: Anticancer human tumor 624824-186-R-J2-PDC patient-derived colon adenocarcinoma cell line growth inhibition [PI3K]
Conditions: stronger effect = lower value
Text: Combinatorial screen of targeted agents with the PI3K inhibitors inavolisib, alpelisib, duvelisib, and copanlisib in multi-cell type tumor spheroids
A high-throughput screen of multi-cell type tumor spheroids was designed to identify active combinations of targeted small molecules and PI3K pathway inhibitors. Complex spheroids include a stromal component modeled by human endothelial cells (HUVEC) and fibroblasts modeled by human mesenchymal stem cells (MSCs). The concentration ranges selected for each drug and investigational agent were based upon clinically achievable concentrations if the clinical Cmax of the agent was known.
Compounds. The drugs and investigational agents: inavolisib (NSC800729), alpelisib (NSC765974), duvelisib (NSC772469), copanlisib (NSC816437), ipatasertib (NSC767898), afuresertib (NSC778305), talazoparib (NSC767125), sapanisertib (NSC764658), selumetinib (NSC741078), tovorafenib (DAY101, NSC766906), vemurafenib (NSC761431), ravoxertinib (NSC781343), sotorasib (NSC818433), MRTX1133 (NSC 836407), abemaciclib (NSC 768073), palbociclib (NSC758247), venetoclax (NSC 766270), SY5609 (NSC837396), enzalutamide (NSC755605), and darolutamide (NSC825331), were obtained from the National Cancer Institute (NCI) Developmental Therapeutics Program Chemical Repository. The FDA-approved anticancer drug set is available from the NCI Developmental Therapeutics Program. […] The stock solutions were prepared in dimethyl sulfoxide (DMSO, Sigma-Aldrich, St. Louis, MO, cat. D2650) at 800-fold the tested concentration and stored at -70 degrees C prior to their use. All drugs and investigational agents were tested over a range starting from a high concentration at or near the clinical Cmax and decreasing in half-log increments. If the clinical Cmax for an agent had not been determined, the highest concentration tested was 10 microM.
Cell Culture. All cells were maintained in an incubator at 37 degrees C and 5% CO2 with 95% humidity. The PDC lines were cultured according to standard operating procedures established by the NCI PDMR (https://pdmr.cancer.gov/sops/default.htm). All PDCs were thawed and cultured in Matrigel-coated flasks prepared with a working solution of 1X Ham's F-12 nutrient mix, without supplementation (Invitrogen, Waltham, MA, cat. 11765054), 100 U/mL penicillin-streptomycin (Invitrogen, cat. 15140122), and 2.5% Matrigel (Corning Inc., Corning, NY, cat. 354248) for the first three passages. The 354836-022-R-J1-PDC, 475296-252-R-J1-PDC, and 997726-040-R-J2-PDC lines were cultured in 6A media, which includes advanced DMEM/F-12 (Thermo Fisher Scientific, cat. 12634028), 10 mM HEPES (Thermo Fisher Scientific, cat. 15630080), 1X GlutaMAX supplement (Thermo Fisher Scientific, cat. 35050061), 0.1 mg/mL primocin (InvivoGen, San Diego, CA, cat. ant-pm-2), 10% defined fetal bovine serum, heat inactivated (HyClone Laboratories Inc., Logan, UT, cat. SH30070.03HI), 50% L-WRN conditioned media (ATCC, cat. CRL-3276), 1.25 mM N-Acetyl-L-cysteine (Sigma-Aldrich, cat. A9165), 10 mM nicotinamide (Sigma-Aldrich, cat. N0636), 1X B-27 supplement (Thermo Fisher Scientific, cat. 17504044), 1X N-2 supplement (Thermo Fisher Scientific, cat. 17502048), and 10 microM Y-27632 dihydrochloride (Tocris Bioscience, Bristol, United Kingdom, cat. 1254). The 624824-186-R-J2-PDC line was cultured in 6C/Colon 1B media, which includes all 6A media components plus 50 ng/mL human EGF recombinant protein (Thermo Fisher Scientific, cat. PHG0311). […]
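Further: spheroids exposed to agents for 7 days before viability read; 100% = DMSO vehicle treated spheroids.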

In the case of C[C@@H](NC(=O)c1ncnc(N)c1Cl)c1ncc(C(=O)Nc2cc(C(F)(F)F)c(Cl)cn2)s1, the viability, T/C (compound alone 0.0316 µM) is reported as 98, 117, 89.2, 112%, the viability, T/C (compound alone 0.1 µM) is reported as 114, 99.2, 109, 80.4% and the viability, T/C (compound alone 0.316 µM) is reported as 105, 84.4, 72.2, 100%. The viability, T/C (compound alone 10 µM) was 73, 93.5, 64.3, 63.8%.
With C#Cc1c(F)ccc2cc(O)cc(-c3ncc4c(N5CC6CCC(C5)N6)nc(OCC56CCCN5CC(F)C6)nc4c3F)c12 (stereo not drawn) the viability, T/C (compound alone 0.1 µM) was 80.3, 109, 82, 100% and the viability, T/C (compound alone 1 µM) was 123, 98.3, 83.6, 93.2%.
For Cn1ncnc1[C@H]1c2n[nH]c(=O)c3cc(F)cc(c23)N[C@@H]1c1ccc(F)cc1, the viability, T/C (compound alone 0.001 µM) was 89.9, 109, 91.5, 80.9% and the viability, T/C (compound alone 0.01 µM) was 103, 116, 81.5, 117%.
For Cc1nc(NC(=O)N2CCCC2C(N)=O)sc1-c1ccnc(C(C)(C)C(F)(F)F)c1 (stereo not drawn), the viability, T/C (compound alone 0.0316 µM) was 97.5, 77.1, 81.6, 104, 89.9, 75.8, 78.3, 94.1%, the viability, T/C (compound alone 0.316 µM) was 68, 76.3, 89.7, 86.5, 97.4, 80.1, 82.3, 74.2% and the viability, T/C (compound alone 1 µM) was 79.9, 62.4, 87.7, 75.3, 87, 79.6, 73.3, 92.6%. The viability, T/C (compound alone 3.16 µM) was 98.7, 77.8, 88.8, 82.1, 105, 82.9, 81.2, 101%.
With CC1(C)CCC(CN2CCN(c3ccc(C(=O)NS(=O)(=O)c4ccc(NCC5CCOCC5)c([N+](=O)[O-])c4)c(Oc4cnc5[nH]ccc5c4)c3)CC2)=C(c2ccc(Cl)cc2)C1 the viability, T/C (compound alone 0.0316 µM) was 96.1, 109, 90.8, 80.7% and the viability, T/C (compound alone 1 µM) was 107, 67.9, 65, 86.3%.
In the case of COc1c(OCCCN2CCOCC2)ccc2c3n(c(=NC(=O)c4cnc(N)nc4)nc12)CCN3, the viability, T/C (compound alone 0.00316 µM) is reported as 91, 82.9, 81.9, 88.7, 107, 88.3, 90.4, 92.8%.
With C=CC(=O)N1CCN(c2nc(=O)n(-c3c(C)ccnc3C(C)C)c3nc(-c4c(O)cccc4F)c(F)cc23)C(C)C1 (stereo not drawn) the viability, T/C (compound alone 0.0316 µM) was 94.6, 111, 75.6, 82.2% and the viability, T/C (compound alone 3.16 µM) was 115, 77.7, 81.9, 70.7%.
In the case of CC(=O)c1c(C)c2cnc(Nc3ccc(N4CCNCC4)cn3)nc2n(C2CCCC2)c1=O, the viability, T/C (compound alone 0.000316 µM) is reported as 85.8, 114, 99.8, 109%, the viability, T/C (compound alone 0.001 µM) is reported as 89.3, 74.9, 77.3, 102% and the viability, T/C (compound alone 0.01 µM) is reported as 83.2, 109, 94.4, 87.1%. For the same compound, the viability, T/C (compound alone 0.0316 µM) was 75.5, 94.7, 101, 80.8%.
CCCS(=O)(=O)Nc1ccc(F)c(C(=O)c2c[nH]c3ncc(-c4ccc(Cl)cc4)cc23)c1F was tested, and the viability, T/C (compound alone 1 µM) was 67.6, 101, 95.3, 103%.
CC(Cn1ccc(-c2ccc(C#N)c(Cl)c2)n1)NC(=O)c1cc(C(C)O)[nH]n1 (stereo not drawn) was tested, and the viability, T/C (compound alone 0.1 µM) was 101, 88.4, 104, 117%.
For Cn1cnc2c(F)c(Nc3ccc(Br)cc3Cl)c(C(=O)NOCCO)cc21, the viability, T/C (compound alone 0.03 µM) was 90.6, 101, 68.7, 91.5%, the viability, T/C (compound alone 0.0949 µM) was 91.2, 73.1, 59.2, 73.5% and the viability, T/C (compound alone 0.3 µM) was 70.4, 85.2, 54.4, 73.6%. The viability, T/C (compound alone 3 µM) was 86.5, 85.9, 60.8, 72.3%.
In the case of CCN1CCN(Cc2ccc(Nc3ncc(F)c(-c4cc(F)c5nc(C)n(C(C)C)c5c4)n3)nc2)CC1, the viability, T/C (compound alone 0.00316 µM) is reported as 71.7, 85.6, 74.4, 101% and the viability, T/C (compound alone 0.01 µM) is reported as 109, 114, 73.4, 99.2%.
In the case of CC(C)NCC(C(=O)N1CCN(c2ncnc3c2C(C)CC3O)CC1)c1ccc(Cl)cc1 (stereo not drawn), the viability, T/C (compound alone 0.0316 µM) is reported as 83.1, 93.2, 102, 110% and the viability, T/C (compound alone 1 µM) is reported as 72.2, 101, 89.6, 89%.
In the case of CC(C)n1nc(-c2ccc3oc(N)nc3c2)c2c(N)ncnc21, the viability, T/C (compound alone 0.000316 µM) is reported as 79, 95.9, 105, 90.5% and the viability, T/C (compound alone 0.001 µM) is reported as 70.2, 88.3, 80.2, 104%.
CC(Nc1ncnc2nc[nH]c12)c1cc2cccc(Cl)c2c(=O)n1-c1ccccc1 (stereo not drawn) was tested, and the viability, T/C (compound alone 0.0316 µM) was 80.9, 82.1, 78.7, 98.5, 87.3, 88.5, 115, 99.8%, the viability, T/C (compound alone 0.1 µM) was 92.8, 80.4, 78.3, 85.2, 111, 83, 88.4, 84.5% and the viability, T/C (compound alone 3.16 µM) was 97, 99.4, 105, 97.1, 111, 87.5, 102, 116%. The viability, T/C (compound alone 10 µM) was 108 (2×), 116, 115, 106, 113, 91.8, 117%.
For CC1(C)CCC(Nc2ncc(C(F)(F)F)c(-c3c[nH]c4c(P(C)(C)=O)c(C#N)ccc34)n2)CN1 (stereo not drawn), the viability, T/C (compound alone 0.0316 µM) was 76.6, 91.9, 89.1, 64.4%.
For Cn1nccc1Nc1nccc(-c2ccn(C(CO)c3ccc(Cl)c(F)c3)c(=O)c2)n1 (stereo not drawn), the viability, T/C (compound alone 0.1 µM) was 95.7, 89.3, 61.8, 71% and the viability, T/C (compound alone 10 µM) was 113, 98.5, 90, 82.8%.
In the case of CC(Nc1ccc2c(c1)OCCn1cc(N3C(=O)OCC3C(F)F)nc1-2)C(N)=O (stereo not drawn), the viability, T/C (compound alone 0.00316 µM) is reported as 90.5, 98.6, 91.3, 88.6, 112, 92.1, 94.1, 86.5%.
For Cn1ncc(Cl)c1-c1cc(C(=O)NC(CN)Cc2cccc(F)c2)sc1Cl (stereo not drawn), the viability, T/C (compound alone 0.0316 µM) was 75.9, 85.8, 85.7, 101%.
CNC(=O)c1ccc(N2C(=S)N(c3ccc(C#N)c(C(F)(F)F)c3)C(=O)C2(C)C)cc1F was tested, and the viability, T/C (compound alone 0.0316 µM) was 108, 96, 94.8, 77.8%, the viability, T/C (compound alone 0.1 µM) was 98, 68.1, 93.5, 116% and the viability, T/C (compound alone 0.316 µM) was 80.1, 105, 106, 99%. The viability, T/C (compound alone 1 µM) was 122, 100, 87.1, 119%, the viability, T/C (compound alone 3.16 µM) was 89.2, 102, 117, 90.8% and the viability, T/C (compound alone 10 µM) was 98.1, 143, 84.9, 106%.
